# Data published in the supplement of paper PMC9135407.
# Several values for one entry are separate records, joined by “and”; a condition that tells them apart may be missing. Identical values can stand only once. Counter-ions that a name gives are not always drawn. About 620 (11%) of roughly 5,800 compounds showed activity.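 Rule for the calls: active = score above a cut-off or among the top three wells of a plate; in these data no inactive exceeds 0.85.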 The entries are a selection whose mix differs from that of the whole data set.
# Tested on: primary human hepatic stellate cells (donor 1)
# Assay: scaled lipid accumulation score (0 = DMSO-like, 1 = nortriptyline-like); higher = stronger HSC inactivation (lipid re-accumulation), active = hit call of the paper
# Settings: 48 h
# Procedure: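 Primary lipid accumulation screen in primary human hepatic stellate cell myofibroblasts (donor 1, passage 8) in 384-well plates. 100 nL of library compound was pin-transferred into 30 µL medium in duplicate, and cells were treated for 48 h. The 'Scaled' score combines distance from plate baseline, toxicity and reproducibility penalties, and is normalised to nortriptyline (positive) and DMSO (negative) controls on each plate. A hit is defined as scaled >0.85 or among the top 3 wells per plate.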
# [1] = library stock concentration: 3.33 mM
# [2] = library stock concentration: 80 uM
# [3] = library stock concentration: 400 uM
# [4] = library stock concentration: 2 mM
# [5] = library stock concentration: 10 mM
# [6] = library stock concentration: 1 mM
smiles,measurement,setting,value
O=c1cc(N2CCOCC2)oc2c1ccc1ccccc12 [DNA-PK Inhibitor II],scaled lipid accumulation score,[1],inactive: ≤ 0
O=c1cc(N2CCOCC2)oc2c1ccc1ccccc12,scaled lipid accumulation score,[2],inactive: ≤ 0
same,scaled lipid accumulation score,[3],inactive: ≤ 0
same,scaled lipid accumulation score,[4],inactive: ≤ 0
same,scaled lipid accumulation score,[5],inactive: ≤ 0 and inactive: 0.033
CCOC(=O)C(C)(C)Oc1ccc(Cl)cc1 [Clofibrate],scaled lipid accumulation score,[6],inactive: 0.089
same,scaled lipid accumulation score,[5],inactive: ≤ 0
"c1cnc2c(c1)ccc1cccnc12 [1,10-Phenanthroline monohydrate]",scaled lipid accumulation score,[5],inactive: 0.15
CC(C)NC[C@H](O)COc1ccc(CC(N)=O)cc1 [(S)-(-)-Atenolol],scaled lipid accumulation score,,inactive: 0.114
CC(C)NC[C@H](O)COc1ccc(CC(N)=O)cc1 [S(-)-Atenolol],scaled lipid accumulation score,[5],inactive: ≤ 0
CC(C)NC[C@H](O)COc1ccc(CC(N)=O)cc1 [S-(-)-Atenolol],scaled lipid accumulation score,[5],inactive: 0.011
CCC(NC(C)C)C(O)c1ccc(O)c(O)c1 (configuration not stated) [Isoetharine mesylate],scaled lipid accumulation score,library stock concentration: 6 mM,inactive: ≤ 0
CCC(NC(C)C)C(O)c1ccc(O)c(O)c1 (configuration not stated) [Isotharine mesylate],scaled lipid accumulation score,[5],inactive: 0.037
CCC(NC(C)C)C(O)c1ccc(O)c(O)c1 (configuration not stated) [Isoetharine mesylate salt],scaled lipid accumulation score,,inactive: ≤ 0
CCC(Cc1c(I)cc(I)c(N)c1I)C(=O)O (configuration not stated) [Iopanoic acid],scaled lipid accumulation score,,inactive: ≤ 0
CCC(Cc1c(I)cc(I)c(N)c1I)C(=O)O (configuration not stated) [Iopanic acid],scaled lipid accumulation score,library stock concentration: 3.5 mM,inactive: ≤ 0
same,scaled lipid accumulation score,[5],inactive: ≤ -0.027
CN(C)CC=CC(=O)Nc1cc2c(Nc3ccc(F)c(Cl)c3)ncnc2cc1O[C@H]1CCOC1 [Afatinib (BIBW2992)],scaled lipid accumulation score,[1],active: 1.12
CC(=O)OCCNC(=O)c1cccnc1 [N-[2-(Acetoxy)ethyl]-3-pyridinecarboxamide],scaled lipid accumulation score,[5],inactive: ≤ 0
CN1CCc2cccc3c2[C@H]1Cc1ccc(O)c(O)c1-3 [(R)-(-)-Apomorphine hydrochloride],scaled lipid accumulation score,[5],inactive: ≤ 0
CN1CCc2cccc3c2[C@H]1Cc1ccc(O)c(O)c1-3 [Apomorphine hydrochloride],scaled lipid accumulation score,library stock concentration: 6.6 mM,inactive: 0.018
same,scaled lipid accumulation score,[5],inactive: ≤ 0
CN1CCc2cccc3c2[C@H]1Cc1ccc(O)c(O)c1-3 [R(-) Apomorphine hydrochloride hemihydrate],scaled lipid accumulation score,,inactive: 0.036
CN1CCc2cccc3c2[C@H]1Cc1ccc(O)c(O)c1-3 [Apomorphine r (-)],scaled lipid accumulation score,library stock concentration: 7.5 mM,inactive: ≤ -0.006
CN1CCc2cccc3c2[C@H]1Cc1ccc(O)c(O)c1-3 [Apomorphine hydrochloride hemihydrate],scaled lipid accumulation score,[5],inactive: ≤ 0
CNC(CC(=O)O)C(=O)O [NMDA (N-Methyl-D-aspartic acid)],scaled lipid accumulation score,[1],inactive: ≤ 0
same,scaled lipid accumulation score,[5],inactive: ≤ -0.001
Cl.Clc1ccc(Cn2c(CN3CCCC3)nc3ccccc32)cc1 [Clemizole hydrochloride],scaled lipid accumulation score,[5],active: 0.991
C[C@]12CC[C@@H]3c4ccc(O)cc4CC[C@H]3[C@@H]1CC[C@@H]2OC(=O)CCC1CCCC1 [Estradiol Cypionate],scaled lipid accumulation score,[1],inactive: ≤ 0
same,scaled lipid accumulation score,[5],inactive: 0.262
C[C@]12CC[C@@H]3c4ccc(O)cc4CC[C@H]3[C@@H]1CC[C@@H]2OC(=O)CCC1CCCC1 [Estradiol cypionate],scaled lipid accumulation score,library stock concentration: 5 mM,inactive: ≤ -0.001
same,scaled lipid accumulation score,[5],inactive: ≤ 0
CC(=O)Nc1ccc(NC(=S)NC(=O)c2ccc(C(C)(C)C)cc2)cc1 [Tenovin-1],scaled lipid accumulation score,[6],inactive: ≤ 0
CCOC(=O)[C@]12CC1/C(=N\O)c1ccccc1O2 (some centres not stated),scaled lipid accumulation score,[5],inactive: ≤ 0 and inactive: 0.015
O=c1cc(-c2ccc(O)c(O)c2)oc2cc(O)cc(O)c12 [Luteolin],scaled lipid accumulation score,,inactive: ≤ 0
same,scaled lipid accumulation score,[6],inactive: ≤ 0
same,scaled lipid accumulation score,[1],inactive: 0.017
same,scaled lipid accumulation score,[5],inactive: 0.452
CCN1CCN(Cc2ccc(NC(=O)c3ccc(C)c(Oc4ccnc5[nH]ccc45)c3)cc2C(F)(F)F)CC1,scaled lipid accumulation score,[2],inactive: 0.069
same,scaled lipid accumulation score,[3],inactive: 0.308
same,scaled lipid accumulation score,[4],inactive: 0.809
same,scaled lipid accumulation score,[5],inactive: 0.792
Nc1ncn([C@H]2C[C@H](O)[C@@H](CO)O2)c(=O)n1 [Decitabine],scaled lipid accumulation score,[2],inactive: ≤ 0
same,scaled lipid accumulation score,[3],inactive: ≤ 0
same,scaled lipid accumulation score,[4],inactive: ≤ 0
same,scaled lipid accumulation score,[1],inactive: ≤ 0
same,scaled lipid accumulation score,[5],inactive: ≤ 0 and inactive: 0.012
NCCCCNCCCN [Spermidine trihydrochloride],scaled lipid accumulation score,[5],inactive: 0.017 and inactive: ≤ 0
CC(C)(C(=O)c1cccnc1)c1cccnc1 [Metyrapone],scaled lipid accumulation score,,inactive: ≤ 0
same,scaled lipid accumulation score,library stock concentration: 8.8 mM,inactive: ≤ 0
CC(C)(C(=O)c1cccnc1)c1cccnc1,scaled lipid accumulation score,[5],inactive: ≤ 0
CC(C)(S)C(N)C(=O)O (racemic),scaled lipid accumulation score,[5],inactive: ≤ 0
